# Laboratory results reported in ChEMBL document CHEMBL4888484, “Replenishing the malaria drug discovery pipeline: Screening and hit evaluation of the MMV Hit Generation Library 1 (HGL1) against asexual blood stage Plasmodium falciparum ,using a nano luciferase reporter read-out” (2022).
# Out of some 150,000 compounds screened, about 540 (0.36%) showed an effect of 50% or more. The list shows a part of the results.
# Tested on: Plasmodium falciparum
# Assay: Primary screen in NF54 nanoGlo assay, in single point, at 2uM, 72h; a lower Z score goes with more inhibition
# Assay type: functional, Erythrocyte
# Conditions: timepoint 72 hour
Compound,% Inhibition [%],Z score
Cc1cc(C(=O)N2CC[C@@H]3CN(Cc4ccncc4)[C@@H]3C2)ccn1,-3,0.37
O=C(Nc1ccccc1)OC[C@H]1C[C@@H]2CCN1C[C@@H]2c1cc(C2CCCC2)nc(-c2ccncc2)n1,0,-0.01
Cc1cccc(CCN2CCN3C(=O)OC[C@H]3C2)n1,-3,0.59
O=C(NC[C@H]1CCCCC1(F)F)c1cccc2oc(=O)[nH]c12,-1,0.13
CC(C)(C)c1ccc(S(=O)(=O)CCN2C[C@@H]3C[C@@H](C2)c2cccc(=O)n2C3)cc1,4,-0.81
CCn1c(=O)oc2cc(S(=O)(=O)N3CCC(CC(=O)Nc4ccc(C(C)C)cc4)CC3)ccc21,-4,0.36
CC1CCNC(=O)C1NC(=O)Nc1ccc(C#N)c(C(F)(F)F)c1 (centres undefined),39,-5.61
COC1CCC(NC(=O)CCc2ccc(S(=O)(=O)F)cc2)CC1 (centres undefined),-3,0.34
O=c1ccc(-c2ccccc2)c2n1C[C@H]1C[C@@H]2CN(Cc2cnc3ccccc3c2)C1,-10,1.51
CN(C)c1nccc(N2CCC[C@H]2c2cccnc2)n1,-3,0.65
O=C(Oc1ccccc1)N1C2C1C1CC2N(C(F)(F)F)C1(F)F (centres undefined),-2,0.31
C[C@@H](Cn1cccn1)NCc1cc(Br)c2c(c1)OCO2,21,-2.48
C[C@@H](Cc1ccccc1F)NC(=O)NCCC(F)(F)F,-4,0.42
O=C1O[C@H]2CN(Cc3ccccn3)C[C@H]2N1C1CCCC1,-22,1.9
Cc1cccc(NC(=O)N2CCN(CCO[C@@H](c3ccccc3)c3cccc(C(F)(F)F)c3)CC2)c1,0,0.02
CN1C(=O)C(C(=O)c2ccc(Cl)cc2)C(=O)N(C)C1=O,-10,1.14
c1ccc(-c2ccc3c(c2)CNCC3)cc1,-2,0.41
COc1cccc(C(=O)[C@H]2CCCN(C3CCN(C(C)C)CC3)C2)c1,-6,0.78
NCCc1cc(Cl)ccc1Br,-9,1.39
Cc1ccc([C@H]2CN(c3nccnc3C)[C@@H]3C4CCN(CC4)[C@H]23)cc1,-1,0.15
C[C@@H](c1ncc(C(C)(C)C)o1)n1nc(-c2ccco2)oc1=O,-4,0.53
O=C(CC[C@@H]1CCCN2CCCC[C@H]12)N1CCc2ncccc2C1,-9,1.17
